Screen size: about 48,000 compounds; about 1,200 (2.5%) were called active. Inconclusive results (about 2%) are left out.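 How the source made its calls: active means activation of at least 60% and not above a set upper limit (about 1 call in 100 departs from these limits); inconclusive means activation of 40% to 60%, or above that upper limit; inactive means activation under 40%.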 The list shows a part of the results.

UniProt O75388, sequence (O75388 whole entry, looked up): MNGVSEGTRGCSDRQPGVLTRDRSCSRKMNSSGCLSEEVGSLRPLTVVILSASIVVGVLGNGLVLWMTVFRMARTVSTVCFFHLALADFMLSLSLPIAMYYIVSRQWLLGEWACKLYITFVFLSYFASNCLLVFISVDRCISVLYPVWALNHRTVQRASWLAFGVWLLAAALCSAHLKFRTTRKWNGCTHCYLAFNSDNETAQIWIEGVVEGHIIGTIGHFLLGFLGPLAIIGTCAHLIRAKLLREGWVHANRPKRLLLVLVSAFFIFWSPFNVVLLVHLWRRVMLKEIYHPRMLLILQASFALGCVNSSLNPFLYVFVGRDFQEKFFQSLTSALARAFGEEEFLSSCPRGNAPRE

This assay concerns the target Probable G-protein coupled receptor 32 (Homo sapiens) (UniProt O75388). Briefly: qHTS for Agonists of Human Resolvin D1 Receptor DRV1. Further: 0% is about no effect. The following applies: CHO-K1 GPR32 beta-arrestin PathHunter luminescence, 90 min; at 76.9 µM; stronger effect = higher value; zero percent set by DMSO-only wells. The essentials:
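Engineered CHO-K1 line co-expressing GPR32-ProLink and EA-beta-arrestin. Compound treatment lasted 90 min at 37 °C. Luminescence was recorded after 1 h with substrate at ambient temperature, relative to DMSO basal wells.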
(Quantitative high-throughput screening tests each substance at several concentrations.)
On to `COc1ccc(OC)c(Nc2ncnc3c2nc2n3CCCC2)c1`, for which the activation is inactive: -6.51%. Next, `COCCCn1c(=N)c(C(=O)NCc2cccnc2)cc2c(=O)n3cc(C)ccc3nc21`: inactive: -7.87%; `Nc1ncnc2n[nH]c(Nc3ccc(F)cc3)c12`: inactive: -5.59%. On to `COc1cc(CCNC(=O)c2ccc3c(c2)c(C)c(C)n3Cc2cccc(C)c2)cc(OC)c1OC`, for which the activation was inactive: -22.6%. For `CCc1nnc(SCc2ccc(OC)cc2)c2cc3sc(C)cc3n12`, the activation was inactive: -6.58%. Turning to `CCOc1ccc(NC(=O)c2nc3nc(C)cc(C(F)F)n3n2)cc1`, the activation is inactive: 32.5%.

Take `Cc1cc(C)c2c(-n3cccc3)c(C(=O)NCc3cccc(F)c3)sc2n1`: the activation was inactive: -2.62%. Take `CC(=O)Nc1ccc(NC(=O)CCSCCc2ccccn2)cc1`: the activation was inactive: -13.1%. Take `CCOc1ccc(CCNC(=O)CN2C(=O)COc3ccc(S(=O)(=O)N4CCCCCC4)cc32)cc1`: the activation was inactive: -11.5%.

On to `CC(=O)c1cccc(NC(=O)Cn2c(=O)oc3cc(S(=O)(=O)N4CCCC4)ccc32)c1`, for which the activation is inactive: 19.2%.

Turning to `CCC(=O)C1=C(c2ccc(OC)c(OC)c2)N(C(=O)CC)n2c(CC)nnc2S1`, the activation was inactive: -80.2%. Next, `Cc1ccc(NC(=O)c2c(NC(=O)Cc3ccccc3)sc3c2CCCC3)cc1`: inactive: -16.4%; `c1ccc(CN(CC2=NCCN2)c2ccccc2)cc1`: inactive: -0.903%. On to `CN(C)c1ccc(-c2nnc3n(Cc4ccccc4)c(=O)c4ccccc4n23)cc1`, for which the activation was inactive: 26.3%. As for `CCN(c1nc(N)c(C(=O)N=C(N)N)nc1Cl)C(C)C`, the activation is inactive: 16.6%. As for `N#Cc1c(-n2ncnc2-c2cccc(Br)c2)sc2c1CCCCC2`, the activation is inactive: 13.1%.

`COc1ccc(-n2c(SCC(=O)Nc3cccc(C)c3C)nc3c([nH]c4ccccc43)c2=O)cc1`: the activation is inactive: -18.5%. As to `CN(C)c1ccc(CNC(=O)c2ccc(NC(=O)N3CCCCc4ccccc43)cc2)cc1`, the activation is inactive: -9.12%. Take `CC(C)(C)c1ccc(Oc2ccc(NC(=O)CCC(=O)OCC(=O)c3ccccc3)cc2)cc1`: the activation was inactive: -14.3%.

For `Cc1ccc2oc(=O)c3cc(C(=O)N4CCN(c5ccccc5F)CC4)sc3c2c1`, the activation is inactive: 2.19%.

On to `Cc1ccc(Cl)cc1N1CCN(C(=O)CCCn2c(=O)[nH]c3ccc(Br)cc3c2=O)CC1`, for which the activation was inactive: 16.3%. On to `CCc1ccccc1NC(=O)C1CCN(c2cnccn2)CC1`, for which the activation was inactive: -8.28%. As for `COc1ccc2c(c1)c1c(c(=O)n(-c3ccc(OC)c(OC)c3)c(=O)n1Cc1ccccc1F)n2C`, the activation was inactive: -15.6%.

For the compound `COc1cc(NC(=O)CSc2nccn2C)cc(OC)c1OC`, the activation is inactive: -2.8%. Regarding `CC(=O)c1ccc(Nc2ccc3cc(S(=O)(=O)N4CCCC4)ccc3n2)cc1`, the activation is inactive: -20.6%. As to `O=C(CCn1cnnn1)Nc1cc(C(F)(F)F)cc(C(F)(F)F)c1`, the activation was inactive: 8.43%.

On to `CC(C)Oc1cccc(C2CC(=O)Nc3cc4c(cc32)OCO4)c1` (centres undefined), for which the activation was inactive: 34.8%. Next, `CC(=O)c1nnn(-c2ccc(C)cc2Cl)c1C`: inactive: -9.08%; `O=C(NCCS(=O)(=O)N1CCN(c2ccc(F)cc2)CC1)c1cccc(C(F)(F)F)c1`: inactive: 0.454%. For `CCCCSCCCNC(=O)c1cn(C)c2ccc(S(=O)(=O)N3CCCCCC3)cc2c1=O`, the activation was inactive: -5.3%. Turning to `CC(C)CCn1nnc2sc(-c3ccccc3)cc2c1=O`, the activation was inactive: 30.6%. As for `Cc1cccc(NC(=O)c2sc3nc4c(cc3c2N)CN(C(C)C)CC4)c1`, the figure is inactive: -3.35%. For the compound `CCc1ccc(S(=O)(=O)Nc2ccc3[nH]c(=O)sc3c2)cc1`, the activation is inactive: -2.26%.

For the compound `Cc1cccc(N2CCN(C(=O)CN3C(=O)COc4ccc(S(=O)(=O)N5CCOCC5)cc43)CC2)c1C`, the activation was inactive: -20.8%.

As to `CC1=C(C(=O)OC2CCCCCC2)C(c2cccc(F)c2F)CC(=O)N1` (centres undefined), the activation is inactive: -9.26%. For the compound `Clc1ccc(N2CCN(Cc3cc4ccccn4n3)CC2)cc1`, the activation is inactive: 0.444%. Turning to `O=C(O)C1=CCCN(CCON=C(c2ccccc2)c2ccccc2)C1`, the activation is inactive: -15.3%. For `CCC1CCCCN1C(=O)CSc1nc(-c2ccc(OC)c(OC)c2)cc(C(F)(F)F)n1` (centres undefined), the activation is inactive: 26.1%.

In the case of `Cc1cc([N+](=O)[O-])ccc1NC(c1nnc(-c2ccccc2)o1)c1ccccc1F` (centres undefined), the activation was inactive: -13.5%. `COc1cc(NC(=O)CCCc2nnc3n(CC(C)C)c(=O)c4sccc4n23)cc(OC)c1`: the activation was inactive: -7.12%. Next, `CCOC(=O)c1cc2c(=O)n3ccccc3nc2n(Cc2ccco2)c1=NC(=O)c1cccc(F)c1`: inactive: -21.4%; `Fc1ccc(Nc2nc(SCc3ccccc3F)nc3ccccc23)cc1`: inactive: -1.37%; `Cc1ccc(Cn2c(SCC(=O)NCc3ccccc3Cl)nc3ccsc3c2=O)cc1`: inactive: -15.4%. On to `Cc1nc2cc(C(=O)NC3CCCCCC3)ccc2n1-c1ccc(Br)cc1`, for which the activation was inactive: -18.1%. In the case of `CC(=O)N1CCc2cc(Br)cc(S(=O)(=O)CCC(=O)N3CCN(c4ccccc4)CC3)c21`, the activation was inactive: -1.84%. As for `CCOc1ccc2nc(N3CCCC(C(=O)Nc4ccc(OC)c(Cl)c4)C3)sc2c1` (centres undefined), the figure is inactive: -5.9%; as for `Cc1cc(-c2ccc(C)c(S(=O)(=O)NCCc3ccc(S(N)(=O)=O)cc3)c2)on1`, inactive: -6.83%; as for `CN(C)S(=O)(=O)c1ccc2c(c1)N(CC(=O)Nc1ccc(F)cc1)C(=O)CS2`, inactive: -30.4%. As for `Cc1nn(-c2ccccc2)c2c1cc1c(=O)n(C)c(=O)nc-1n2-c1cccc(Cl)c1`, the figure is inactive: -2.54%. Take `O=C(COC(=O)C(Cc1c[nH]c2ccccc12)NC(=O)c1ccc(Cl)cc1)c1ccc(Cl)cc1` (centres undefined): the activation was inactive: -26.7%. With `Oc1ccc(-c2nc(-c3ccccc3)c(-c3ccc(Br)cc3)[nH]2)cc1`, the activation was inactive: 4.86%. Take `Cc1cc(C)c(NC(=O)CCn2c(=O)c3cccn3c3ccccc32)c(C)c1`: the activation was inactive: -19.1%. In the case of `CCN1CCN(C(c2ccc(SC)cc2)c2c(O)cc(C)n(Cc3ccco3)c2=O)CC1` (centres undefined), the activation was inactive: -14.5%. For the compound `COc1ccccc1NC(=O)C1CCN(S(=O)(=O)c2ccc3[nH]c4c(c3c2)CCCCC4)CC1`, the activation was inactive: -9.21%.

Turning to `COc1ccc(-c2cc(=O)c3cc(OCC(=O)OC(C)C)ccc3o2)cc1`, the activation was inactive: -5.43%. `CN(C)CC/C=C1/c2ccccc2COc2ccc(CC(=O)O)cc21`: the activation was inactive: -6.12%. `COC(=O)c1sc(N2C(=O)c3oc4ccccc4c(=O)c3C2c2ccc(O)cc2)nc1C` (centres undefined): the activation is inactive: -3.65%.

With `COCCCN1C(=O)c2[nH]nc(-c3ccccc3O)c2C1c1ccc(OCc2ccccc2)cc1` (centres undefined), the activation was inactive: 25.5%. Turning to `COc1cc(NC(=O)CCS(=O)(=O)c2nc(-c3ccc4c(c3)OCO4)cc(C(F)(F)F)n2)cc(OC)c1OC`, the activation is inactive: 10.5%. Consider `COc1ccc(CCNC(=O)c2oc(=O)c3ccccc3c2-c2ccccc2)cc1OC`, for which the activation was inactive: -5.14%. Consider `COc1ccc(CNC(=O)CN2C(=O)COc3ccc(S(=O)(=O)N4CCC(C)CC4)cc32)cc1`, for which the activation is inactive: -7.36%. As to `Cc1ccc(NC(=O)Cn2c(=O)n(CCCCC(=O)NCCc3ccc(Cl)cc3)c(=O)c3ccccc32)cc1`, the activation is inactive: -8.71%. Turning to `CCc1c(C)sc2c1CCN(C(=O)Nc1cc(C)cc(C)c1)C2c1ccccc1` (centres undefined), the activation was inactive: -6.27%. As for `COCCCNC(=O)CSc1nc2cc3c(cc2c(=O)n1CCCCCC(=O)NCc1ccc2c(c1)OCO2)OCO3`, the figure is inactive: -9.01%; as for `Cc1nc(NC(=O)c2c(-c3ccccc3)c(-c3ccccc3)nn(C)c2=O)sc1C`, inactive: -16.6%; as for `CCCCNC(=O)C1CCC(CNS(=O)(=O)c2ccc(C)cc2)CC1` (centres undefined), inactive: -12.4%. Next, `COc1ccc(C2CC(=O)Nc3c2c(=O)n(C)c2nc4ccccc4n32)cc1` (centres undefined): inactive: 16.2%; `COc1ccc(-c2noc(-c3ccc(C)cc3Cl)n2)cc1OC`: inactive: -2.55%; `CCOC(=O)c1[nH]c(C)c(C(=O)NCc2cccc(OC)c2)c1C`: active: 61%. As for `CCc1ccccc1NC(=O)Cn1c(=O)n(CC(=O)NCCc2ccccc2)c(=O)c2ccccc21`, the figure is inactive: 6.65%; as for `COc1ccc(CC(=O)NCCc2csc(-c3ccc(C(F)(F)F)cc3)n2)cc1`, inactive: 24.7%.

As for `COc1cc(Cl)c(C)cc1NC(=O)CSc1cc(-c2ccccc2)nc(C)n1`, the activation was inactive: -8.08%. As for `COc1ccc(C(=O)c2cn(Cc3cccc(C)c3)c3cc4c(cc3c2=O)OCO4)cc1`, the activation was inactive: 32.3%. As for `CS(=O)(=O)n1nc(-c2ccco2)nc1NCc1ccccc1Cl`, the figure is inactive: -15.5%; as for `Cc1c(/C=C(\C#N)C(=O)Nc2cccc(Cl)c2)c2ccccc2n1Cc1ccccc1`, inactive: -1.34%; as for `COC(=O)c1sc2cccc(F)c2c1S(=O)(=O)Nc1ccc(C)cc1Cl`, inactive: -16.8%. Regarding `Cn1c(=O)c2c(SCC(=O)NCc3ccc(F)cc3)nc(-c3ccccc3Cl)nc2n(C)c1=O`, the activation is inactive: 2.61%. As for `Cc1ccc(NS(=O)(=O)c2ccc3c(c2)[C@H]2C=CC[C@H]2[C@@H](c2ccc(F)cc2)N3)cc1C`, the activation was inactive: -19.4%.

`COc1ccccc1N1CCN(C(=O)CCn2nc(C)c(S(=O)(=O)N3CCCC3)c2C)CC1`: the activation was inactive: -2.74%. Regarding `NC(=O)NS(=O)(=O)c1ccc(N)cc1`, the activation was inactive: 12.1%. For the compound `Cc1ccc(NC(=O)CSc2nc3ccc(NC(=O)COc4ccc(C)cc4)cc3s2)cc1`, the activation is inactive: 5.43%. For `O=C(Nc1ccc2[nH]c(=O)c(=O)[nH]c2c1)c1cccc(F)c1`, the activation is inactive: -3.22%. Consider `O=C(Nc1nnc(C2CC(=O)N(c3ccc(Cl)cc3)C2)s1)c1ccco1` (centres undefined), for which the activation was inactive: -14.5%. Turning to `Cc1ccc(SCc2nc(-c3ccc(C(=O)Nc4cc(C)ccc4C)cc3)oc2C)cc1`, the activation was inactive: -17.6%.

Source of the values: PubChem BioAssay AID1346428 (National Center for Advancing Translational Sciences (NCATS), 2018).
